According to patent US11673947B2, “Target tissue-specific antigen-binding molecule” (Chugai Seiyaku Kabushiki Kaisha, priority 2012, dated 2023):

Assays:
HSA [1] = target: T1, HSA (Homo sapiens, UniProt P02768); assay: Phage ELISA, binding to HSA in the presence or absence of SC; settings: in the presence of SC
Description: Culture supernatants containing phages were collected according to a conventional method (Methods Mol. Biol. (2002) 178, 133-145) from single colonies of E. coli obtained by the method described above. The collected culture supernatants were treated by ultrafiltration using NucleoFast 96 ([…]-NAGEL). 100 μl of the culture supernatants were added to each well, and the NucleoFast 96 was centrifuged (4500 g for 45 minutes) to remove flow-through. One hundred μl of H2O was added to each well, and again the NucleoFast 96 was centrifuged (4500 g for 30 minutes) for washing. After 100 μl of TBS was added, the NucleoFast 96 was allowed to stand for five minutes at room temperature. Finally, phage solution contained in the supernatant of each well was collected.
The purified phages, to which TBS or SC/TBS was added, were subjected to ELISA by the following procedure. A StreptaWell 96 microtiter plate (Roche) was coated overnight with 100 μl of TBS containing biotin-labeled HSA. After biotin-labeled HSA was removed by washing each well of the plate with TBST, the wells were blocked with 250 μl of 2% skim milk/TBS for one hour or more. 2% skim milk/TBS was removed, and then the prepared, purified phages were added to each well. […] Then, the developed color was assessed by measuring absorbance at 450 nm.

HSA [2] = target: T1, HSA; assay: IgG ELISA, binding to HSA in the presence or absence of each small molecule
Description: Two types of antibodies obtained: HSNMSC1-4_#22 and GC413, were subjected to ELISA under the nine conditions described in Table 3. Meanwhile, each small molecule was appropriately prepared at the concentrations shown in Table 3 using the buffers indicated in Table 19. Biotin-labeled HSA was used as the antigen.
First, a StreptaWell 96 microtiter plate (Roche) was coated at room temperature for one hour or more with 100 μl of PBS containing biotin-labeled HSA. After washing with Wash buffer to remove unbound biotin-labeled HSA from the plate, each well was blocked for one hour or more with 250 μl of Blocking Buffer. After Blocking Buffer was removed from each well, the purified IgGs were prepared to 2.5 μg/ml in Sample Buffer containing small molecules at the final concentrations shown in Table 3, and each was aliquoted at 100 μl into the plate. The plate was allowed to stand at room temperature for one hour to allow binding of each IgG to biotin-labeled HSA in each well. After washing with Wash Buffer containing small molecules at the final concentrations shown in Table 3, an HRP-conjugated anti-human IgG antibody (BIOSOURCE) diluted with Sample Buffer containing the same small molecules was added to each well. The plate was incubated for one hour. Following wash with Wash Buffer containing each small molecule, the TMB single solution (ZYMED) was added to each well. The chromogenic reaction in the solution of each well was terminated by adding sulfuric acid. Then, the developed color was assessed by measuring absorbance at 450 nm.

human IL6 [3] = target: T2, human IL6 (Homo sapiens, UniProt P05231); assay: Phage ELISA, binding to human IL-6 in the presence or absence of small molecule cocktail (SC); settings: in the presence of SC
Description: Culture supernatants containing phages were collected according to a conventional method (Methods Mol. Biol. (2002) 178, 133-145) from single colonies of E. coli obtained by the method described above. The collected culture supernatants were treated by ultrafiltration using NucleoFast 96 ([…]-NAGEL). 100 μl of the collected culture supernatants were added to each well of NucleoFas96 and centrifuged (4500 g for 45 minutes) to remove the flow-through portion. 100 μl of H2O was added to each well, and again the NucleoFast 96 was centrifuged (4500 g for 30 minutes) for washing. After 100 μl of TBS was added, the NucleoFast 96 was allowed to stand for five minutes at room temperature. Finally, a phage suspension was collected from the supernatant in each well.
After addition of TBS or SC/TBS, the purified phages were subjected to ELISA by the following procedure. A StreptaWell 96 microtiter plate (Roche) was coated overnight with 100 μl of TBS containing the biotin-labeled antigen. After the antigen was removed by washing each well of the plate with TBST, the wells were blocked with 250 μl of 2% skim milk-TBS for one hour or more. 2% skim milk-TBS was removed, and then the prepared, purified phages were added to each well. […] Then, the developed color was assessed by measuring absorbance at 450 nm. […]

human IL6 [4] = target: T2, human IL6; assay: IgG ELISA, binding to human IL-6 in the presence or absence of each small molecule, amino acid or amino acid metabolite
Description: Three types of antibodies: isolated I6NMSC1-3_A11 (hereinafter abbreviated as A11), and CLB8-F1 and GC413 as controls were subjected to ELISA under the nine conditions described in Table 3. Meanwhile, each small molecule was appropriately prepared at the concentrations shown in Table 3 using the buffers indicated in Table 4. Biotin-labeled human IL-6 was used as the antigen.
First, a StreptaWell 96 microtiter plate (Roche) was coated at room temperature for one hour or more with 100 μl of PBS containing the biotin-labeled antigen. After washing with the Wash buffer to remove unbound antigen from the plate, each well was blocked for one hour or more with 250 μl of the Blocking Buffer. The Blocking Buffer was removed from each well. The purified IgGs were prepared to 2.5 μg/ml in a Sample Buffer containing small molecules at the final concentrations shown in Table 3, and each was aliquoted at 100 μl to each well of the plate. The plate was allowed to stand at room temperature for one hour to allow binding of each IgG to the antigen in each well. After washing with a Wash Buffer containing the small molecules at the final concentrations shown in Table 3, an HRP-conjugated anti-human IgG antibody (BIOSOURCE) diluted with a Sample Buffer containing the same small molecules was added to each well. The plate was incubated for one hour. Following wash with a Wash Buffer containing each small molecule, the TMB single solution (ZYMED) was added to each well. The chromogenic reaction in the solution of each well was terminated by adding sulfuric acid. Then, the developed color was assessed by measuring absorbance at 450 nm. […]
First, a StreptaWell 96 microtiter plate (Roche) was coated at room temperature for one hour or more with 100 μl of PBS containing a biotin-labeled antigen. […] Then, the developed color was assessed by measuring absorbance at 450 nm. […]

[5] = condition 9 (without small molecules) vs condition 8 (complete small molecule cocktail solution)

T2 sequence (P05231 30-212): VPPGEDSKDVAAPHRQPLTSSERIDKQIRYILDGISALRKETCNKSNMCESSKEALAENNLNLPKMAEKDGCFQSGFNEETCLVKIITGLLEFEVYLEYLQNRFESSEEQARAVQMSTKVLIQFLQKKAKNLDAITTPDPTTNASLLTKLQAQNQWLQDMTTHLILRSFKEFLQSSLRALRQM

B1: HSNMSC1-4_#22: antibody that binds to HSA in the presence of adenosine; SEQ ID NOs: 54 and 55 (antibody, listed as Homo sapiens)
heavy: EVQLVESGGGVVQPGRSLRLSCAAYGFTFSRYGMQWVRQAPGKGLEWVAVIWNDASNQYYADSVKGRFTISRDNSRNTLYLQMDSLRSEDTGLYYCAKEGSSPKTPTSTWSSLESWGQGTLVTVSS[human IgG1 constant region not written out]
light: QSALTQPASVSGSPGQSITISCTGTSSDVGGYNYVSWYQQHPGKAPKLMIHDVSNRPSGVSNRFSGSKSGTTASLTISGLQAEDEADYYCSSYTSSTTPYVFGTGTKVTVLGQPKAAPSVTLFPPSSEELQANKATLVCLISDFYPGAVTVAWKADSSPVKAGVETTTPSKQSNNKYAASSYLSLTPEQWKSHRSYSCQVTHEGSTVEKTVAPTECS
binding activity to HSA in the presence of the small molecule cocktail (phage ELISA) (HSA [1]): has binding activity | absorbance under condition 2 compared to condition 8 (HSA [2]; condition 2 (1 mM adenosine)): the same | absorbance under condition 9 as compared to condition 8 (HSA [2]; [5]): markedly lower | absorbance under other conditions (HSA [2]; remaining conditions of Table 3): markedly lower

B2: I6NMSC1-3_#03: antibody that binds to human IL-6 in the presence of kynurenine; SEQ ID NOs: 50 and 51 (antibody, listed as Homo sapiens)
heavy: [about 100 residues not written out]GPLVSDAFDIWGQGTMVTVSS[human IgG1 constant region not written out]
light: DIVMTQTPLSLSVTPGQPASISCKSSLSLLNRDGKTFLYWYLQKPGQSPQLLIYEVSSRFSGVPDRFSGSGSGTDFTLQINRVEADDAGVYYCMQGLHLPRTFGLRTKVEIKRTVAAPSVFIFPPSDEQLKSGTASVVCLLNNFYPREAKVQWKVDNALQSGNSQESVTEQDSKDSTYSLSSTLTLSKADYEKHKVYACEVTHQGLSSPVTKSFNRGEC
binding activity to human IL-6 in the presence of a small molecule cocktail (phage ELISA) (human IL6 [3]): exhibited binding activity | absorbance under condition 7 compared to condition 8 (human IL6 [4]; condition 7 (100 μM kynurenine)): comparable | absorbance under condition 9 as compared to condition 8 (human IL6 [4]; [5]): markedly lower | absorbance under other conditions (human IL6 [4]; remaining single small molecule conditions of Table 3): lower
